Results: the RNAGym collection of RNA variant scans (doi:10.1101/gad.245936.114)
Variants at the floor of the assay are shown more often than the library holds them.

B1: tRNA (parent)
chain: CUCUCGGUAGCCAAGUUGGUUUAAGGCGCAAGACUUUAAUUUAUCACUACGAAAUCUUGAGAUCGGGCGUUCGACUCGCCCCCGGGAGAUUUUUUCCUCGAGCAA

Variants of: B1
Assay: nonsense suppression (GFP-seq) (ratio to wild type); higher = more function; SUP4oc tRNA, yeast GFP reporter sort-seq
In short: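 Yeast carrying genome-integrated SUP4oc tRNA variants from a library with ~3% random mutations were grown in raffinose/galactose medium with 80 mg/L adenine. Each strain also carried a galactose-driven GFP ochre reporter and RFP. Cells were sorted into GFP/RFP bins, and each bin was Illumina-sequenced (phred ≥30). Nonsense suppression (GFPSEQ) is the bin median GFP/RFP, weighted by each variant's estimated cell share per bin, relative to wild-type SUP4oc; variants needed ≥100 reads and ≥30 cells.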

Row | Variant | nonsense suppression
1 | A9U C81U | 0.0272
2 | G10A G32C U35C | ≤ 0.026
3 | G10C G66U G84C | ≤ 0.026
4 | G10A A31C G65C G86U | ≤ 0.026
5 | G10C A33G C81A | ≤ 0.026
6 | A9U U21C C68G | ≤ 0.026
7 | G10U G26U A33G U58A A62C G65A C72A | ≤ 0.026
8 | G10U A30C C77U | ≤ 0.026
9 | G10A C56G | ≤ 0.026
10 | G10A C56A | ≤ 0.026
11 | G10C U22G | ≤ 0.026
12 | A9U U58G G65A | ≤ 0.026
13 | G10C U76C | ≤ 0.026
14 | G10C C12A G26U G32C | ≤ 0.026
15 | G10C C34U G85U | ≤ 0.026
16 | G10U U76C G86U | ≤ 0.026
17 | A9U G61C U70G | ≤ 0.026
18 | G10U G15U G65U C72A G73U | ≤ 0.026
19 | G10U U16A U22A A24U C72U | ≤ 0.026
20 | G10U C27U C29A A60C U76G | ≤ 0.026
21 | G10A G32C G88C | ≤ 0.026

Row | Variant | nonsense suppression
22 | G10C C27A | ≤ 0.026
23 | G10U G25C A31G U57A A87G | ≤ 0.026
24 | A9U U63G G73A | ≤ 0.026
25 | G10C C11G C68U U71C | ≤ 0.026
26 | G10U G18C G88C | ≤ 0.026
27 | G10U G25U U76A | ≤ 0.026
28 | G10A A60G | ≤ 0.026
29 | A9U A31G U70C G73U C81U | ≤ 0.026
30 | G10C G61C U63C G73A | ≤ 0.026
31 | A9U C64U | 0.0349
32 | G10C A24U A30G A33U U55A C80U | ≤ 0.026
33 | G10U A13C U63G | ≤ 0.026
34 | A9U U55C G69C | ≤ 0.026
35 | G10C A13C U35C C64G | ≤ 0.026
36 | G10U U22A C27A G73U | ≤ 0.026
37 | G10A U17A G26C G69A C83A | ≤ 0.026
38 | A9U G85C | 0.0283
39 | G10C C11U G25C U63C | ≤ 0.026
40 | A9U G69A C77U | ≤ 0.026
41 | G10U C34G U70A | ≤ 0.026
42 | A9U C34U | ≤ 0.026

Row | Variant | nonsense suppression
43 | G10U G65A | ≤ 0.026
44 | G10U G65C | ≤ 0.026
45 | A9U G84U | 0.0747
46 | G10C U35A C79A | ≤ 0.026
47 | A9U U55A G84A | ≤ 0.026
48 | A9U G88A | 0.0329
49 | A9U G88U | ≤ 0.026
50 | G10C U16A U22C U76G | ≤ 0.026
51 | A9U A30U A33U A74U | ≤ 0.026
52 | G10A G15C A54G A62C | ≤ 0.026
53 | A9U C56A A62C | ≤ 0.026
54 | G10U U16C U55C | ≤ 0.026
55 | A9U A31C U63G G67C | ≤ 0.026
56 | G10A A30G U58A U63G | ≤ 0.026
57 | G10U A13C C29U U76G | ≤ 0.026
58 | G10U A24U C79G C81G | ≤ 0.026
59 | G10U C11A A60C | ≤ 0.026
60 | A9U G18A G25C | ≤ 0.026
61 | G10U U20G U57C | ≤ 0.026
62 | A9U A60U | 0.0653
63 | A9U A60G | ≤ 0.026

Row | Variant | nonsense suppression
64 | G10C A24U G65C | ≤ 0.026
65 | G10C A13G A14G G86U | ≤ 0.026
66 | A9U C12U | 0.29
67 | G10U G15A C56G C72G C79G G85U | ≤ 0.026
68 | G10C C12A U55G | ≤ 0.026
69 | G10A G59A | ≤ 0.026
70 | G10U G19C G85C | ≤ 0.026
71 | G10C G25C G67A | ≤ 0.026
72 | A9U C75U | 0.656
73 | G10C C29U A60G A74C | ≤ 0.026
74 | G10C G18A | ≤ 0.026
75 | G10A A33G C75G | ≤ 0.026
76 | G10U G15A G26U A60U A74G G85A | ≤ 0.026
77 | G10C U17A G73U G85C | ≤ 0.026
78 | G10A U17G G69C | ≤ 0.026
79 | G10A U22A G25U C56A G61U C82G | ≤ 0.026
80 | A9U C82A G85U | ≤ 0.026
81 | G10U U35G G61A | ≤ 0.026
82 | G10U G66A C79A A87C | ≤ 0.026
83 | G10A A14U C27G C29G G86A A89G | ≤ 0.026
